{"source": "PubChem BioAssay AID1476", "about": "(National Center for Advancing Translational Sciences (NCATS), 2009)", "note": "Several values for one entry are separate records, joined by “and”; a condition that tells them apart may be missing. Equal values may be shown once. Hit rate of the full screen: of about 200,000 compounds, about 4,500 (2.2%) were called active. This list was built around the results that the source calls inconclusive (neither active nor inactive); the mix of calls is not that of the screen. Calls come from the whole dose curve; as a rule, active = well fitted inhibition curve with a large enough effect; inconclusive = small, poorly fitted or top-dose-only effect, or effect the other way; inactive = flat fitted curve, though single readings scatter. A potency beside an inconclusive call is a rough fit, not a confirmed value. Potency is the fitted concentration of half-maximal effect; tags give direction and shape of the fitted curve."}
{"target": "Cruzipain (Trypanosoma cruzi) (UniProt P25779)", "sequence (P25779 whole entry, looked up)": "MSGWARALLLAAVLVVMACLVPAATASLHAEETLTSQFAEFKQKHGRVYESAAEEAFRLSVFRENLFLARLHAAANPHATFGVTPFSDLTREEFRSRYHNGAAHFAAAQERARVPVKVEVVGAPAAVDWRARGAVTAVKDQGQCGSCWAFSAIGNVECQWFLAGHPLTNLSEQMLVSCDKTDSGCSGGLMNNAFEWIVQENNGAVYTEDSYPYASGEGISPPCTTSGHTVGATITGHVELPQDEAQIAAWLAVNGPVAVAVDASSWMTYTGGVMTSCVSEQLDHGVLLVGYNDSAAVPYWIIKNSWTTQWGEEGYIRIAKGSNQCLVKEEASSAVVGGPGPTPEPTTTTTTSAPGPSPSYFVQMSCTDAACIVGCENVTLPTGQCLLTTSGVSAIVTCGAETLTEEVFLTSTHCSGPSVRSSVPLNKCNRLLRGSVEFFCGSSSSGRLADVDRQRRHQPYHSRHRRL", "experiment": "qHTS Assay for Promiscuous and Specific Inhibitors of Cruzain (without detergent); note: nearly all actives have a fitted effect of over 40% in size;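 for max response, negative = inhibition: plate controls were enzyme without inhibitor for no effect and buffer without enzyme for full effect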", "conditions": "purified cruzain, Z-FR-AMC fluorescence, no detergent", "how_it_was_run": "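Purified cruzain at 1.5 nM, pre-incubated 15 min with compound at room temperature in 100 mM sodium acetate pH 5.5, 5 mM DTT, 0.00005% Triton X-100. Reaction started with 2 uM Z-FR-AMC; AMC fluorescence increase over 60 s gives rate.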"}
{"smiles": "O=C(c1ccc2c(c1)N(Cc1ccc(Cl)cc1)C(=O)c1ccccc1S2=O)N1CCC(Cc2ccccc2)CC1", "note": "(configuration not stated)", "Potency": "inconclusive: 31.6 µM [inhibitor, single point]"}
{"smiles": "CCOC(=O)/C(=N\\Nc1ccc(C(C)=O)cc1)c1csc(Nc2ccccc2)n1", "Potency": "inconclusive: 39.8 µM [inhibitor, single point]"}
{"smiles": "CC(C)OP(=O)(OC(C)C)C(Nc1ccccc1)c1ccc2c(c1)OCO2", "note": "(configuration not stated)", "Potency": "inconclusive: 39.8 µM [activator, single point]"}
{"smiles": "O=C(Cc1cccs1)N1CCC(c2nc3c(nnn3Cc3ccccc3Cl)c(=O)[nH]2)CC1", "Potency": "inconclusive: 39.8 µM [activator, single point]"}
{"smiles": "O=S(=O)(Nc1ccc2c(c1)OCO2)c1ccc(Br)s1", "Potency": "inconclusive: 12.6 µM [inhibitor, partial curve, poor fit]"}
{"smiles": "COCCCn1c(=O)c2sccc2n2c(CCCC(=O)Nc3cccc(C(F)(F)F)c3)nnc12", "Potency": "inconclusive: 31.6 µM [activator, single point]"}
{"smiles": "COc1cccc(/C=N/NC(=O)c2ccc(-c3ccccc3)cc2)c1O", "Potency": "active: 15.8 µM"}
{"smiles": "COc1cccc(C2C=C(Nc3ccccc3)C(=O)N2c2ccccc2)c1", "note": "(configuration not stated)", "Potency": "inconclusive: 31.6 µM [inhibitor, single point]"}
{"smiles": "CC(C)Oc1ccc(/C=N/NC(=O)C2CCCN2S(=O)(=O)c2ccc(Cl)cc2)cc1", "note": "(configuration not stated)", "Potency": "inconclusive: 39.8 µM [activator, single point]"}
{"smiles": "O=C(Nc1ccc(F)cc1)c1cnc(-c2ccccc2)nc1-c1ccccc1", "Potency": "inconclusive: 39.8 µM [inhibitor, single point]"}
{"smiles": "O=[N+]([O-])c1cc(S(=O)(=O)c2ccc(N3CCCCC3)c([N+](=O)[O-])c2)ccc1N1CCCCC1", "Potency": "active: 7.94 µM"}
{"smiles": "CN(c1ccc(C(=O)Nc2ccccc2Sc2ccccc2)cc1)S(C)(=O)=O", "Potency": "inconclusive: 39.8 µM [activator, single point]"}
{"smiles": "Cc1ccc(CNC(=O)C2CCN(S(=O)(=O)c3cccs3)CC2)o1", "Potency": "inconclusive: 31.6 µM [activator, single point]"}
{"smiles": "Cc1ccccc1OCCCCn1c(CCNC(=O)C(C)(C)C)nc2ccccc21", "Potency": "inconclusive: 25.1 µM [activator, single point]"}
{"smiles": "O=C(CSc1nnnn1-c1ccccc1F)Nc1nc2ccccc2s1", "Potency": "inconclusive: 39.8 µM [inhibitor, single point]"}
{"smiles": "COc1cccc(-c2ccc(C#N)c(SCC(=O)NCCc3ccccc3)n2)c1", "Potency": "inconclusive: 3.16 µM [inhibitor, single point]"}
{"smiles": "O=C(Nc1nc(-c2ccc3ccccc3c2)cs1)c1ccc(N2C(=O)CCC2=O)cc1", "Potency": "inconclusive: 39.8 µM [inhibitor, single point]"}
{"smiles": "COc1ccc(OC)c(CNC(=O)c2ccc(NC(=O)c3nsc4ccccc34)cc2)c1", "Potency": "inconclusive: 39.8 µM [inhibitor, single point]"}
{"smiles": "CCCCn1c(O)c(N=NC(=O)c2ccccc2NS(=O)(=O)c2cccs2)c2ccccc21", "Potency": "inconclusive: 39.8 µM [inhibitor, single point]"}
{"smiles": "CC1(C)Cc2c(C#N)c(N3CCN(C(=O)c4ccccc4)CC3)nc(-c3ccco3)c2CS1", "Potency": "active: 25.1 µM"}
{"smiles": "CCOC(=O)C1=C(C)NC(=S)NC1c1ccc(-c2cccc(Cl)c2C)o1", "note": "(configuration not stated)", "Potency": "inconclusive: 12.6 µM [inhibitor, partial curve]"}
{"smiles": "Cc1ccc(NS(=O)(=O)c2ccc(Cl)c(NC(=S)NC(=O)C3CCCCC3)c2)cc1Cl", "Potency": "active: 31.6 µM"}
{"smiles": "COc1ccc(CCNC(=O)c2cn(C)c3ccc(S(=O)(=O)N4CCOCC4)cc3c2=O)cc1OC", "Potency": "inconclusive: 31.6 µM [activator, single point]"}
{"smiles": "CCOC(=O)c1c(S(=O)(=O)N2CCC(C(=O)N3CCN(c4ccccc4F)CC3)CC2)c(C)n(C)c1C", "Potency": "inconclusive: 31.6 µM [activator, partial curve]"}
{"smiles": "Cc1ccc(S(=O)(=O)N2CCCC2C(=O)OCc2ccco2)cc1", "note": "(configuration not stated)", "Potency": "inconclusive: 39.8 µM [activator, single point]"}
{"smiles": "O=C(Cc1ccccc1)NCC(=O)OCC(=O)c1ccc(Cl)c([N+](=O)[O-])c1", "Potency": "active: 15.8 µM"}
{"smiles": "COc1ccc(NC(=O)c2sc(N3CCOCC3)nc2-c2ccccc2)c(OC)c1", "Potency": "inconclusive: 39.8 µM [activator, single point]"}
{"smiles": "Cc1cccc(C)c1OCC(=O)NC(Cc1c[nH]c2ccccc12)C(=O)O", "note": "(configuration not stated)", "Potency": "inconclusive: 39.8 µM [activator, single point]"}
{"smiles": "CCCCCCC1CCC(C(=O)Nn2c(C)nc3ccccc3c2=O)CC1", "note": "(configuration not stated)", "Potency": "inconclusive: 39.8 µM [inhibitor, single point]"}
{"smiles": "COc1ccc(OC)c(-n2c(N)c(C(=O)NCC3CCCO3)c3nc4ccccc4nc32)c1", "note": "(configuration not stated)", "Potency": "inconclusive: 25.1 µM [activator, partial curve]"}
{"smiles": "O=C(c1ccc2c(c1)N(Cc1cccc(F)c1)C(=O)c1ccccc1S2)N1CCC2(CC1)OCCO2", "max response, negative = inhibition": "inactive: 29.6%"}
{"smiles": "Cc1ccc(Cc2cnc(NC(=O)c3ccco3)s2)cc1", "max response, negative = inhibition": "inactive: -9.13%"}
{"smiles": "Cc1c(Cl)cccc1NC(c1ccc(F)cc1)c1nnc(-c2ccccc2)o1", "note": "(configuration not stated)", "Potency": "inconclusive: 31.6 µM [inhibitor, single point]"}
{"smiles": "CN(C)CN1CSC(=S)N(CN(C)C)C1", "max response, negative = inhibition": "inactive: 11.2%"}
{"smiles": "O=C(Nc1nnc(-c2ccccc2Cl)s1)C1CCN(S(=O)(=O)c2ccc(Cl)cc2)CC1", "Potency": "inconclusive: 39.8 µM [inhibitor, single point]"}
{"smiles": "Cc1ccc(C(=O)O)cc1NC(=S)NC(=O)Cc1ccccc1", "max response, negative = inhibition": "inactive: -6.38%"}
{"smiles": "COc1ccc(-c2ccc(-c3noc(C(C)C)n3)c(OC)n2)cc1", "Potency": "inconclusive: 39.8 µM [activator, single point]"}
{"smiles": "COc1ccc(-c2c(C)nn3c(C(F)(F)F)cc(-c4ccccc4)nc23)cc1OC", "max response, negative = inhibition": "inactive: -1.2%"}
{"smiles": "CCc1nc(SCC(=O)N2CCN(C(=O)c3ccco3)CC2)c2c3c(sc2n1)CCCC3", "Potency": "inconclusive: 31.6 µM [activator, single point]"}
{"smiles": "Clc1ccccc1-c1nc2nc3ccccc3nc2n1-c1ccc2c(c1)OCO2", "Potency": "inconclusive: 39.8 µM [inhibitor, single point]"}
{"smiles": "O=c1ccc2c(OCCCCc3ccccc3)c3ccoc3cc2o1", "Potency": "inconclusive: 12.6 µM [inhibitor, partial curve, poor fit]"}
{"smiles": "CC(=O)NC(=S)Nc1sc2c(c1C#N)CCCCC2", "Potency": "inconclusive: 39.8 µM [activator, single point]"}
{"smiles": "CCn1c(SCC(=O)c2ccc(Cl)s2)nnc1-c1cccs1", "Potency": "inconclusive: 31.6 µM [inhibitor, single point]"}
{"smiles": "CCCS(=O)(=O)c1ncc(Cl)c(C(=O)Nc2c(C(=O)Nc3ccccc3)oc3ccccc23)n1", "Potency": "inconclusive: 31.6 µM [inhibitor, single point]"}
{"smiles": "O=C(Nc1cnn(Cc2ccc(F)cc2)c1)c1cc(-c2cccs2)on1", "Potency": "inconclusive: 31.6 µM [inhibitor, single point]"}
{"smiles": "O=C1CN(C(=O)CSc2nc3ccccc3c(=O)n2Cc2ccc(F)cc2)c2ccccc2N1", "Potency": "inconclusive: 31.6 µM [inhibitor, single point]"}
{"smiles": "C/C=C(/C)C(=O)OC(C)(C)[C@@H]1Cc2c(ccc3ccc(=O)oc23)O1", "Potency": "inconclusive: 25.1 µM [activator, single point]"}
{"smiles": "O=C(COC(=O)c1cc2c(s1)CCCC2)Nc1ccc(Cl)cn1", "Potency": "inconclusive: 31.6 µM [inhibitor, single point]"}
{"smiles": "Cc1sc(NC(=O)c2cc3ccccc3oc2=O)c(C(=O)OC(C)C)c1-c1ccccc1", "Potency": "active: 3.16 µM"}
{"smiles": "Cc1ccc(NC(=O)Nc2cn(CC(C)C)c(=O)c3ccccc23)cc1N(C)C", "max response, negative = inhibition": "inactive: 3.49%"}
{"smiles": "COc1cccc(CNC(=O)C2CCN(C(=O)c3cnn(-c4ccccc4)c3-n3cccc3)CC2)c1", "Potency": "inconclusive: 39.8 µM [activator, single point]"}
{"smiles": "Cc1ccc(S(=O)(=O)N[C@H](C(=O)O)C(C)C)cc1", "max response, negative = inhibition": "inactive: 6.81%"}
{"smiles": "CC(C)NC(=O)COC(=O)CNC(=O)c1cc(Cl)cc([N+](=O)[O-])c1", "Potency": "active: 7.94 µM"}
{"smiles": "CCOC(=O)c1cc(S(=O)(=O)N2CCN(c3cccc(C)c3C)CC2)[nH]n1", "Potency": "inconclusive: 25.1 µM [activator, single point]"}
{"smiles": "CCCCNC(=O)C1CCN(c2nc3ccc(C)cc3[nH]2)CC1", "max response, negative = inhibition": "inactive: -14.2%"}
{"smiles": "CC(C)c1ccc(CN(Cc2ccco2)c2cnc(S(C)(=O)=O)nc2C(=O)Nc2ccccc2)cc1", "Potency": "inconclusive: 39.8 µM [inhibitor, single point]"}
{"smiles": "CC1CCC(NC(=O)c2ccc(NC(=O)c3ccc(=O)[nH]c3)cc2)CC1", "note": "(configuration not stated)", "Potency": "inconclusive: 39.8 µM [inhibitor, single point]"}
{"smiles": "COc1ccc(-n2c(=S)[nH]c3cc(C(=O)Nc4cccc(C)c4)ccc3c2=O)cc1", "Potency": "active: 12.6 µM"}
{"smiles": "CCOC(=O)N1CCC2(CC1)CC(=O)c1c(ccc3oc(C(=O)O)c(C)c13)O2", "Potency": "inconclusive: 20 µM [inhibitor, single point]"}
{"smiles": "Cc1sc(NC(=O)c2ccc(F)cc2)c(CN2CCCCCC2)c1C", "Potency": "inconclusive: 39.8 µM [inhibitor, single point]"}
{"smiles": "O=C(NNc1nc(-c2ccccc2)c2cc(Br)ccc2n1)c1ccc(S(=O)(=O)N2CCCCC2)cc1", "Potency": "active: 25.1 µM"}
{"smiles": "Cc1cccc(C2=NN(c3ccc(Br)cc3)[C@@H](C(=O)N3CCOC3=O)[C@@H]2c2ccc(F)cc2)c1", "Potency": "active: 12.6 µM and active: 17.8 µM"}
